# The whole screen tested about 310,000 compounds, of which about 2,200 (0.71%) showed an effect of 50% or more. Effects have a minus sign here. This is one part of the list.
# Target: human ether-à-go-go-related gene (hERG) potassium channel (human, UniProt Q12809)
# Experiment: primary screen, population patch clamp on CHO cells stably expressing hERG
# Chain of human ether-à-go-go-related gene (hERG) potassium channel (Q12809 whole entry, looked up): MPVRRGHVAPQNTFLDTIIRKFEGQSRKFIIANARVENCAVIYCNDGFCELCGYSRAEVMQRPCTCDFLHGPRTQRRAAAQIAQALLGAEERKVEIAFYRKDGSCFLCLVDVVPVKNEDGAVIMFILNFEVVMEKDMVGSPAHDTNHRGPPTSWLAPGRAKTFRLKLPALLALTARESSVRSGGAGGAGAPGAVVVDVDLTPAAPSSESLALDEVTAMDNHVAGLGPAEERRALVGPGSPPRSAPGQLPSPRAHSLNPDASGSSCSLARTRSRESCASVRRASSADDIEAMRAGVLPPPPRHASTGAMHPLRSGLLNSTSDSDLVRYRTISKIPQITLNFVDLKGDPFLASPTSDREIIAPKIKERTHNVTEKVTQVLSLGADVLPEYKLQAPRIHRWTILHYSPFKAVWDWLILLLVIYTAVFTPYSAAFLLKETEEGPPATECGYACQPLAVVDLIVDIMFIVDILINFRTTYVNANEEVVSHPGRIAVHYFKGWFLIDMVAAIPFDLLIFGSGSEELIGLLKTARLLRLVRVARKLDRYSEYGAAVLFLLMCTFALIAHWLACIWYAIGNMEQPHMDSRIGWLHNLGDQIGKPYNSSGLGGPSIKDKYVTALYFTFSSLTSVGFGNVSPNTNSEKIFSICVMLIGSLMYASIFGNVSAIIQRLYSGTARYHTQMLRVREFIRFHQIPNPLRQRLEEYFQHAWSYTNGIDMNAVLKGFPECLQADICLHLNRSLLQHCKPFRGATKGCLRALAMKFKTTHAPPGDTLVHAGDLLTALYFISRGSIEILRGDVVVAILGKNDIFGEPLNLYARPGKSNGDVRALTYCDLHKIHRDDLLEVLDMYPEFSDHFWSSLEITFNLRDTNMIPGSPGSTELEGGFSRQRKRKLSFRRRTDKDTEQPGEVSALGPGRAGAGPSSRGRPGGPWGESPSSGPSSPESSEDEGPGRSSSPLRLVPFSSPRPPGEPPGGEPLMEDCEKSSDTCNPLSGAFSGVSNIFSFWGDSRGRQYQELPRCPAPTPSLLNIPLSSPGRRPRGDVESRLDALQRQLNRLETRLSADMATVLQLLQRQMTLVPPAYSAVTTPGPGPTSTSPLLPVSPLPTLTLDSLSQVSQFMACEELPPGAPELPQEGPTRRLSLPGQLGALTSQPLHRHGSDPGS
row,Structure (SMILES),"hERG current change (%, negative = inhibition) at 1uM [%]"
1,CN(C)Cc1c(C(=O)N/N=C/C2CC=CCC2)nnn1-c1nonc1N (stereo not shown),4.67
2,CSc1nc(N2CCN(c3ccccc3)CC2)cc(N2CCN(c3ccccc3)CC2)n1,17.3
3,Cc1ccnc(SCC(=O)N2CCCc3ccccc32)n1,-1.64
4,CCCn1c(CN2CCN(C(=O)OCC)CC2)nc2cc([N+](=O)[O-])ccc21,-13
5,O=C(CC1c2ccccc2Oc2ccccc21)Nc1ccccc1C(F)(F)F,8.71
6,Cc1ccc(C(C)NC(=O)C23CC4CC(CC(C4)C2)C3)cc1 (stereo not shown),10
7,CC(=O)c1cc(-c2ccccc2)n(CC(=O)Nc2cccc(C)c2C)c1C,6.81
8,Cc1ccc(-n2nnnc2SCc2nnc(-c3ccccc3Br)o2)c(C)c1,6.8
9,O=C(/C=C/c1ccc(Cl)cc1)Nc1ccc(N2CCCCC2)cc1,5.92
10,Cc1cc(C)cc(CC2CC(=O)N(c3ccc(Cl)cn3)C2=O)c1 (stereo not shown),-6.65
11,CCOC(CCNC(=O)c1cn(CCOC)c(=O)c2c1c1ccccc1n2C)OCC,9.45
12,CSc1ccccc1NC(=O)CN(C)C(C)C(=O)NC(=O)NC1CCCCC1 (stereo not shown),10.2
13,CC1(C)C(=O)NCCN1C(=O)CC1C(=O)NCCN1Cc1cccc(C(F)(F)F)c1 (stereo not shown),11.9
14,Nc1nc2ccc([N+](=O)[O-])cc2[nH]1,16.5
15,Cc1nc2c(-c3ccc(Cl)cc3)c(C)[nH]n2c(=O)c1Cc1ccccc1,12.2
16,CCN(CC(=O)NCc1ccco1)S(=O)(=O)c1ccc(OC)cc1,6.85
17,CN1CCN(C(=O)/C(=C/c2ccc([N+](=O)[O-])cc2)NC(=O)c2ccccc2)CC1,-90.4
18,O=C(CN1C(=O)NC2(CCCC2)C1=O)N1CCN(S(=O)(=O)c2ccccc2[N+](=O)[O-])CC1,8.29
19,CCOC(=O)N1CCN(S(=O)(=O)c2ccc(C)cc2)C1c1ccc(OC)cc1 (stereo not shown),11.1
20,CN(c1ccccc1)S(=O)(=O)c1ccc(C(=O)NCCc2ccc(F)cc2)cc1,12.6
21,O=C(CN1CCOCC1)NN=C1CCCCCCCCCCC1,6.55
22,Cc1cc(C)n(-c2ccc(C(=O)OCC(=O)Nc3ccc([N+](=O)[O-])cc3)cc2)n1,-4.29

row,Structure (SMILES),"hERG current change (%, negative = inhibition) at 1uM [%]"
1,Cn1c(=O)cc(OCC(=O)NCCc2ccc(Cl)cc2)c2ccccc21,-0.158
2,Cc1ccc(C(=O)N(C)CCOc2ccccc2)cc1S(=O)(=O)N1CCOCC1,5.62
3,O=C(c1ccccc1)c1cc([N+](=O)[O-])ccc1N1CCOCC1,10.9
4,S=C(NCCc1ccccc1)N1CCCCC1,8.21
5,Cc1cccc(NC(=O)CCn2cnnn2)c1,14.9
6,CCc1c(C)sc(NC(=O)c2ccccc2[N+](=O)[O-])c1C(N)=O,6.41
7,O=C(Nc1ccc2c(c1)OCO2)c1cc(-c2cccc(O)c2)on1,-35.9
8,O=C(NCc1ccc2c(c1)OCO2)Nc1ccc([N+](=O)[O-])cc1,17.9
9,O=C(NCC(c1ccc(F)cc1)N1CCOCC1)c1nn(-c2ccccc2)c(=O)c2ccccc12 (stereo not shown),-5.24
10,CC(=O)OCCn1c(=O)c2cc3c(=O)n(CCOC(C)=O)c(=O)c3cc2c1=O,2.8
11,COc1cc(CN2CCC(C(N)=O)CC2)ccc1OCc1ccccc1.O=C(O)C(=O)O,0.71
12,Cc1cc(C)nc(SCC(=O)OCC(=O)Nc2nc3ccccc3s2)n1,20.3
13,CCOC(=O)N1CCN(C(=O)C(C)(C)Oc2ccc(Cl)cc2)CC1,6.1
14,Cc1c(C(=O)OCc2ccc(F)cc2)sc2nc3n(c(=O)c12)CCC3,11
15,CCc1ccc(CN(C)Cc2nc(Cc3ccc(OC)c(OC)c3)no2)nc1,6.34
16,COc1ccc(Nc2ncc(C(=O)O)c3ccccc23)cc1,18.9
17,O=C(N/N=C/C=C/c1ccccc1)c1cc2c(ccc3ccccc32)o1,1.69
18,O=C(NC1CCC(O)CC1)c1cc(-c2ccc(Cl)cc2)nc2ccccc12 (stereo not shown),3.6
19,CCOc1ccccc1NC(=O)N1CCCC1C(=O)Nc1ccc(NC(C)=O)cc1 (stereo not shown),6.33
20,Cc1ccc(Cn2ncc3c(N4CCCC4)ncnc32)cc1,-20.4
21,O=C(O)c1cc(C2CC2)nn1-c1ccccc1,4.87
22,O=C(O)CN1C(=O)COc2ccc(S(=O)(=O)N3CCCCCC3)cc21,10.2

row,Structure (SMILES),"hERG current change (%, negative = inhibition) at 1uM [%]"
1,Cc1ccc(-n2nnnc2SCC#N)cc1,8.29
2,COC(=O)CCC(=O)Nc1nc(-c2ccccc2)cs1,13.4
3,O=C(CCn1c(=S)[nH]c2ccccc2c1=O)Nc1ccc(F)cc1,14.4
4,COc1ccc(S(=O)(=O)N2CCOC2CNC(=O)C(=O)NCCCn2ccnc2)cc1OC (stereo not shown),8.81
5,C=C(C)c1cccc(C(C)(C)NC(=O)N2CCCC(C)C2)c1 (stereo not shown),16.4
6,CN(CCO)CCOCCOc1cccc2ccccc12,4.69
7,CCOC(=O)NC(c1ccc(C(C)C)cc1)C(Cl)(Cl)Cl (stereo not shown),12.2
8,CCCn1nnc(NC(=O)c2ccccc2Cl)n1,14.8
9,COc1cc(OC)c(OC)cc1/C=C1\C(=O)NC(=O)N(Cc2ccccc2)C1=O,15.8
10,c1csc(-c2csc3ncnc(NCCCN4CCOCC4)c23)c1,-10.9
11,Cc1ccc2nc(SC(C)C(=O)N3CCCCC3)[nH]c2c1 (stereo not shown),16.8
12,COc1ccc(OCC(=O)NCCCn2ccnc2)cc1.Cl,13.5
13,Cc1ccc(CONC(=O)/N=C/N(C)C)cc1,-0.65
14,Cc1c(C(=O)N2CCCCCC2)c(S(=O)(=O)Nc2cccc(F)c2)c(C)n1C,12.5
15,O=C(CCCNC(=O)/C(=C/c1ccccc1F)NC(=O)c1ccccc1)OCc1ccccc1,4.25
16,COc1ccc(C2CC(c3ccccc3)=NN2C(=O)CSc2nnnn2-c2cccc(C)c2)cc1 (stereo not shown),2.06
17,O=C(COC(=O)Cc1cccc(F)c1)NCCc1ccccc1,8.44
18,COCCOC(=O)c1cc(C(=O)c2cc(F)ccc2O)coc1=N,18.5
19,CC(C)CC(NC(=O)C(CC(C)C)NC(=O)OC(C)(C)C)C(N)=O (stereo not shown),9.86
20,COc1ccc(C(=O)n2c(C)c(CCO)c(=O)n2C)cc1,7.35
21,Cc1c(Cl)cccc1NC(=O)CCCN1C(=O)c2cccnc2C1=O,19.9
22,CSc1c(-c2ccccn2)c(N)nn1C(=O)C1CC1,10.9

row,Structure (SMILES),"hERG current change (%, negative = inhibition) at 1uM [%]"
1,COc1ccc(C(=O)N=C2SC3CS(=O)(=O)CC3N2c2ccccc2)cc1OC (stereo not shown),9.82
2,COc1ccc(S(=O)(=O)N(C)c2ccc(C(=O)N3CCC(C(N)=O)CC3)cc2)cc1OC,15.9
3,Cc1cc(C)cc(C(=O)NC(CC(N)=O)c2ccc(NCCN3CCOCC3)c([N+](=O)[O-])c2)c1 (stereo not shown),13.4
4,COc1ccc(CCNS(=O)(=O)c2ccc(-n3cnnn3)c(OC)c2)cc1OC,17
5,CC(C)=CCN1CCC(n2nccc2NC(=O)c2ccccc2Cl)CC1,-43
6,CC(C)CC(C(=O)O)N1C(=O)C2C3C=CC(C2C1=O)C1C(=O)N(C(CC(C)C)C(=O)O)C(=O)C31 (stereo not shown),16.8
7,Cc1noc(C)c1CSCC(=O)N(C)CC(=O)Nc1cccc(F)c1,-5.51
8,CC1CCN(S(=O)(=O)c2ccc(NC(=O)c3ccccc3F)cc2)CC1,9.59
9,Cc1cc(C(=O)NCCCC(=O)O)c(C)o1,3.98
10,NS(=O)(=O)c1cccc(NC(=O)CN2CCN(Cc3ccc4c(c3)OCO4)CC2)c1,-4.96
11,CC(=O)NC1=NN(C(C)=O)C(C)(CCS(=O)(=O)c2ccc(Br)cc2)S1 (stereo not shown),6.6
12,N#Cc1c(SCc2c(Cl)cccc2Cl)nc(N)[nH]c1=S,14.4
13,O=C(N[C@@H](Cc1ccccc1)C(=O)OCC(=O)N1CCOCC1)c1cccs1,-6.21
14,CC(OC(=O)c1cc[n+]([O-])cc1)C(=O)Nc1ccc(C(N)=O)cc1 (stereo not shown),11.8
15,CCN(C(=O)C1CCCN(c2nc(-c3ccc(OC)cc3)no2)C1)c1ccccc1F (stereo not shown),5.47
16,Cc1ccc(C(=O)Nc2cccc(C(=O)N3CCOCC3)c2)cc1Cl,7.51
17,C/C(Cc1ccccc1)=N\NC(=O)CNC(=O)COc1cccc(C)c1,3.02
18,C=CCn1nnnc1-c1cc(Cl)cc(Cl)c1,11.2
19,CCc1nnc(NC(=O)CSc2ccc(-c3ccc(C)cc3)nn2)s1,7.8
20,Cc1nsc(Nc2ccc([N+](=O)[O-])cc2)c1C#N,14.5
21,Cc1cccc(NC(=O)CSc2nc3nc(C)cc(C)n3n2)c1,-12.9
22,CN1CCN(CC2(O)CCN(S(=O)(=O)c3ccc(Cl)cc3)CC2)CC1,-9.27

# Reference: publication PMC4336329 (PLoS ONE, 2015)
